PubChem BioAssay AID902 (National Center for Advancing Translational Sciences (NCATS), 2007)
Out of some 130,000 compounds screened, about 1,900 (1.5%) were called active. The inconclusive results got no clear call from the source; some entries with a clear call stand among them for comparison. Calls come from the whole dose curve; as a rule, active = well fitted cell-killing curve with a large enough effect; inconclusive = small, poorly fitted or top-dose-only effect; inactive = no such curve, though single readings can be large or run the other way. Potencies of inconclusive entries are doubtful fits and often do not repeat.

assay: qHTS Screen for Compounds that Selectively Target Cancer Cells with p53 Mutations: Cytotoxicity of p53ts Cells at the Nonpermissive Temperature; conditions: H1299-p53A138V viability at 39C, ATP luminescence, 24 h; activity change, negative = cell killing: at 46.1 µM (top of the series); note: nearly all actives have a fitted effect of over 55% in size
% is set by controls: 0 for no effect and ±100 for the full control effect; potency is the fitted concentration of half-maximal effect; tags give direction and shape of the fitted curve.

| SMILES | Potency | activity change, negative = cell killing |
| --- | --- | --- |
| CCCCCCCC/C=C\CCCCCCCC(=O)N[C@@H](CO)Cc1ccc(O)cc1 | active: 31.6 µM |  |
| CCCCCCCCCCCCC/C=C\[C@@H](O)[C@H](CO)NC(C)=O | active: 31.6 µM |  |
| COc1ccccc1NC(=O)Cn1c(SCC(=O)Nc2ccc(F)cc2)nc2ccccc21 |  | inconclusive: -34% [cytotoxic] |
| Cc1nc2ccn(Cc3ccccc3)c(=O)c2cc1C(=O)N1CCN(c2ccc(F)cc2)CC1 | inconclusive: 0.0794 µM [cytotoxic, partial curve, poor fit] |  |
| Cc1c(Cl)cnc(NC(=O)COC(=O)c2ccc(S(=O)(=O)NCc3ccco3)cc2)c1Cl | inconclusive: 3.98 µM [cytotoxic, partial curve, poor fit] |  |
| O=C(Nc1cccnc1)Nc1ccc2c(c1)OCO2 | inconclusive: 7.94 µM [cytotoxic, partial curve] |  |
| CCCOc1ccc(CNC(=O)CCCn2ncn3c(cc4sc(CC)cc43)c2=O)cc1 | inconclusive: 10 µM [cytotoxic, partial curve] |  |
| N#CC(C#N)=C(N)/C(C#N)=C/c1ccc(O)cc1 | inconclusive: 0.0008 µM [cytotoxic, full curve, poor fit] |  |
| CCN(CC)c1ccc(NC(=O)c2cccn2-c2nnc(N3CCCCC3)s2)c(C)c1 |  | inactive: 22.8% |
| CSc1ccc2c(c1)N(CC[C@H]1CCCCN1C)c1ccccc1S2 | active: 12.6 µM |  |
| CC(C)N1CC(O)=C(c2nc3ccccc3[nH]2)C1=N | inconclusive: 10 µM [cytotoxic, partial curve] |  |
| CC(=O)Oc1ccc2c(c1C(C)C)CCC1C(C)(C)CCC[C@@]21C (stereo partly drawn) | active: 12.6 µM |  |
| COc1ccc2c(c1OC)C(=O)N1c3ccccc3COC21 (stereo not drawn) | active: 15.8 µM |  |
| Cc1ccc(S(=O)(=O)Nc2cccc(-c3ccc(N4CCC(C)CC4)nn3)c2)s1 | active: 3.98 µM |  |
| CCc1cccc(NS(=O)(=O)c2c(C)[nH]c(=O)[nH]c2=O)c1 | inconclusive: 1.12 µM [cytotoxic, partial curve, poor fit] |  |
| C[C@@H](C(=O)O)c1ccc(N2Cc3ccccc3C2=O)cc1 | active: 5.01 µM |  |
| COc1ccc(-n2ncc3c(NCCCOC(C)C)ncnc32)cc1 | inconclusive: 25.1 µM [cytotoxic, single point] |  |
| COc1cccc(Cn2cc(C(=O)c3ccccc3)c(=O)c3cc4c(cc32)OCO4)c1 | inconclusive: 15.8 µM [cytotoxic, single point] |  |
| O=C(NC(=S)N(CCc1ccccc1)CCc1ccccc1)c1ccco1 | active: 11.2 µM |  |
| CCc1ccccc1NC(=O)CN(C)C(=O)Cn1ncc(Cl)c(Cl)c1=O | active: 3.16 µM |  |
| Cc1nc(SCC(=O)Nc2ccc(C)c(F)c2)c2oc3ccccc3c2n1 |  | inactive: -16.8% |
| CCCCN(CC)CCCNC(=O)c1c(C)oc2ncnc(N3CCOCC3)c12 |  | inactive: 4.68% |
| O=C(CCCn1c(=O)c2cccn2c2ccccc21)NCCc1ccc(Cl)cc1 | active: 12.6 µM |  |
| O=c1c(O)cccc2cc(O)c(O)c(O)c12 | inconclusive: 12.6 µM [cytotoxic, single point] |  |
| CCOc1cccc2sc(N(Cc3cccnc3)C(=O)c3ccc(C#N)cc3)nc12 |  | inactive: -19.4% |

| SMILES | Potency | activity change, negative = cell killing |
| --- | --- | --- |
| CC1CCN(c2nc3ccc(C(=O)NCc4ccccc4)cc3s2)CC1 |  | inactive: -4.67% |
| COc1ccc(-c2cc(=O)c3c(O)cc(O)cc3o2)cc1 | inconclusive: 31.6 µM [cytotoxic, single point] |  |
| COc1ccc(OC)c(NC(=O)Cn2c(=O)cc(-c3ccccc3)c3c(C)nn(C)c32)c1 | inconclusive: 15.8 µM [cytotoxic, partial curve] |  |
| Fc1cc(F)c2nc(N3CCCCC3)sc2c1 |  | inactive: -14.9% |
| CCc1ccc(S(=O)(=O)c2nnn3c2nc(Nc2ccc(NC(C)=O)cc2)c2sccc23)cc1 | active: 12.6 µM |  |
| CCc1ccccc1Nc1nc(N)nc(COC(=O)c2cccn2C)n1 | inconclusive: 6.31 µM [cytotoxic, full curve, poor fit] |  |
| Cc1ccc(-c2nc3sccn3c2Nc2ccc(C)c(C)c2)cc1 |  | inactive: -20.6% |
| Cc1ccc(CNC(=O)Cn2c(=O)n(-c3ccc(C)cc3)c(=O)c3c2c2cc(C)ccc2n3C)cc1 | inconclusive: 0.0282 µM [cytotoxic, partial curve, poor fit] |  |
| CCc1nnc(NC(=O)CSc2nc3c(cc2C#N)CCC3)s1 | active: 2 µM |  |
| Cc1ccccc1NC(=O)Cn1c(=O)n(Cc2ccccc2)c(=O)c2c(C)c(C)sc21 | inconclusive: 20 µM [cytotoxic, single point] |  |
| O=C(CSc1nc2ccccc2o1)NCc1ccc2c(c1)OCO2 | inconclusive: 15.8 µM [cytotoxic, partial curve] |  |
| O=c1cc(-c2ccccc2)oc2cc(O)c(O)cc12 | active: 2 µM |  |
| COc1ccc(NCC(=O)Nc2ccc(Cl)cc2C)c(OC)c1 |  | inactive: -12.4% |
| CCOc1ccc2nc(N3CCOCC3)nc(C)c2c1 | inconclusive: 20 µM [cytotoxic, partial curve, poor fit] |  |
| COc1cc(NC(=O)CCc2c(C)nn(-c3ccc(N4CCCCC4)nn3)c2C)cc(OC)c1OC | inconclusive: 2 µM [cytotoxic, partial curve] |  |
| COc1ncc2nc(-c3ccccc3)c(=O)n(C)c2n1 |  | inactive: 8.04% |
| Cc1ccc(-n2ncc3c(NCCc4ccccc4)ncnc32)cc1Cl | inconclusive: 0.794 µM [cytotoxic, full curve] |  |
| CCOC(=O)C(C)Oc1cccc2c(=O)n(CC(=O)NCc3ccco3)ccc12 (stereo not drawn) | inconclusive: 11.2 µM [cytotoxic, partial curve] |  |
| CCc1ccc(C2=CC(c3cccc(OC)c3OC)n3c(nc4ccccc43)N2)cc1 (stereo not drawn) | active: 15.8 µM |  |
| Cc1ccc(N2CCN(S(=O)(=O)c3nnc(NC(=O)c4cccc(F)c4)s3)CC2)cc1 |  | inactive: -18.6% |
| CN1CCN(CCCNC(=O)c2cc3c(-c4ccc(Cl)cc4)nn(C)c3s2)CC1 | inconclusive: 10 µM [cytotoxic, partial curve] |  |
| CCn1c(=O)cc(OCC(=O)NCCCN2CCN(c3cccc(Cl)c3)CC2)c2ccccc21 | inconclusive: 31.6 µM [cytotoxic, single point] |  |
| COCC(=O)Nc1ccc(-c2cn3cccnc3n2)cc1 | inconclusive: 6.31 µM [cytotoxic, partial curve, poor fit] |  |
| COC(=O)c1[nH]c2cc(OC)c(OC)cc2c1NC(=O)c1cccc(OC)c1 | inconclusive: 12.6 µM [cytotoxic, partial curve] |  |
| CCOC(=O)c1cc(-c2cc3ccccc3o2)n[nH]1 | inconclusive: 12.6 µM [cytotoxic, partial curve] |  |

| SMILES | Potency | activity change, negative = cell killing |
| --- | --- | --- |
| COCC(=O)/C=C1\Sc2ccccc2N1C |  | inactive: -1.49% |
| CC(=Nc1ccc(O)cc1)c1sc2ccccc2c1O | inconclusive: 12.6 µM [cytotoxic, partial curve] |  |
| CCC(=O)Nc1sc(C(=O)OC)c(C)c1C(=O)OC |  | inactive: -12.4% |
| CCc1ccc(-c2nc(CN3CCCC(C(=O)NCc4ccccc4Cl)C3)c(C)o2)cc1 (stereo not drawn) | inconclusive: 25.1 µM [cytotoxic, single point] |  |
| Cn1c(=O)n(C)c2cc(NS(=O)(=O)c3ccc(Cl)cc3)c(NCc3ccccc3)cc21 | inconclusive: 12.6 µM [cytotoxic, partial curve, poor fit] |  |
| O=C(CSc1nc2c([nH]c3ccccc32)c(=O)n1-c1ccccc1)Nc1ccccc1C(F)(F)F | inconclusive: 15.8 µM [cytotoxic, partial curve] |  |
| NS(=O)(=O)c1ccc(CCNC(=O)Cn2c(=O)c3cccn3c3ccc(F)cc32)cc1 | inconclusive: 20 µM [cytotoxic, single point] |  |
| Cc1ccc2nc(-c3ccc(N4CCOCC4)cc3)c(Nc3ccccc3C)n2c1 | inconclusive: 10 µM [cytotoxic, partial curve] |  |
| COc1ccc(-n2nc3c(N4CCCC(C(=O)NCc5ccccc5C)C4)nnc(C)c3c2C)cc1 (stereo not drawn) | inconclusive: 12.6 µM [cytotoxic, partial curve] |  |
| COc1cccc(C2C=C(c3ccc(C)cc3)Nc3c(C(=O)Nc4ccc(F)cc4)cnn32)c1OC (stereo not drawn) |  | inactive: -7.03% |
| Nc1ccc2nc(-c3ccc(Cl)cc3)[nH]c2c1 | active: 10 µM |  |
| CCSC1=N/C(=C\c2ccc(C(=O)O)cc2)C(=O)S1 |  | inactive: -5.07% |
| O=C(Nn1cnnc1)c1cc2c(s1)CCCCC2 | inconclusive: 12.6 µM [cytotoxic, partial curve] |  |
| CCOc1ccc(-c2n[nH]c3c2C(c2cccs2)N(c2ccc(Br)cc2)C3=O)cc1 (stereo not drawn) |  | inactive: -16.6% |
| CCOC(=O)c1[nH]c2c(c1C)C(=O)CC(c1ccco1)C2 (stereo not drawn) |  | inactive: 0.491% |
| O=C(Nc1ccc(-c2nnc(-c3ccccc3)o2)cc1)C(F)(F)F | inconclusive: 12.6 µM [cytotoxic, partial curve] |  |
| Cc1ccc(C(=O)Nc2nnc(SCC(=O)N3CCCc4ccccc43)s2)cc1 | active: 0.562 µM |  |
| Cc1cc(-c2ccccc2)nc2cc(C(=O)Nc3ccc(Cl)c(Cl)c3)nn12 | inconclusive: 31.6 µM [cytotoxic, single point] |  |
| CC(=O)c1sc(NC(=O)c2ccccc2F)nc1C | inconclusive: 25.1 µM [cytotoxic, single point] |  |
| COc1ccccc1N1CCN(C(=O)C2CCN(S(=O)(=O)c3cccs3)CC2)CC1 |  | inactive: -6.72% |
| CCCN1C(=O)/C(=C2\SC(N3CCCCC3)=NC2=O)c2ccccc21 | inconclusive: 5.01 µM [cytotoxic, partial curve] |  |
| CCOc1cccc(NC(=O)CSc2ncc(-c3ccc(Cl)cc3)[nH]2)c1 | active: 20 µM |  |
| O=c1c(-c2ccc(F)cc2)nc2cnc(N3CCNCC3)nc2n1Cc1ccc(F)cc1 | inconclusive: 20 µM [cytotoxic, single point] |  |
